# Results published in PubChem BioAssay AID1508642 (National Center for Advancing Translational Sciences (NCATS), 2021).
# Among all 43,000 compounds or so, about 200 (0.47%) were called active. Another 12% or so got no clear call; they are omitted. Calls come from the whole dose curve; as a rule, active = well fitted cell-killing curve with a large enough effect; inconclusive = small, poorly fitted or top-dose-only effect, or effect the other way; inactive = flat fitted curve, though single readings scatter. Some of the results follow.
# Assay: Cell viability qHTS assay in S16 Pmp22-F2sN cells; note: nearly all actives have a fitted effect of over 65% in size
# Settings: S16 Pmp22-F2sN Schwann cells viability, CellTiter-Glo, 24 h; series mostly up to 57.5 µM; activity change, negative = cytotoxicity: at the top concentration
# Summary of the method: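 S16 Pmp22-F2sN Schwann cells (500-1,000/well) in phenol-red-free DMEM with 10% FBS received 23 nL compound by pin tool for 24 h at 37 °C. Viability was then read as CellTiter-Glo luminescence after 15 min at room temperature.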
# % is set by controls: 0 for no effect and ±100 for the full control effect.
row,SMILES,"activity change, negative = cytotoxicity"
1,CCOc1ccc(NC(=O)CCNS(=O)(=O)c2cccc3nonc23)cc1,inactive: 8.1%
2,CCc1ccc(NC(=O)Cn2c(=O)n(Cc3ccco3)c(=O)c3oc4ccccc4c32)cc1,inactive: 2.72%
3,CC(C)c1ccc(NC(=O)CN2C(=O)COc3ccc(S(=O)(=O)N4CCCCCC4)cc32)cc1,inactive: 2.3%
4,O=C(NCc1cccs1)c1ccc(CSc2nc3cccnc3n2Cc2ccccc2F)cc1,inactive: 1.29%
5,CCOC(=O)c1c(NC(=O)c2cc(-c3cccc(OC)c3)on2)sc2c1CCCC2,inactive: -3.75%
6,COc1cccc(CNC(=O)Cc2c(C(=O)O)c(C)cn2C)c1,inactive: 3.87%
7,COc1ccc(CC(=O)NCC(c2cccs2)S(=O)(=O)c2ccc(C)cc2)cc1 (stereo not drawn),inactive: 9.53%
8,COc1ccc(S(=O)(=O)Nc2c(C)nc3nc(C)[nH]n3c2=O)cc1,inactive: -3.96%
9,CCN(CC)C(=O)c1ccc(Nc2nnc(-c3ccc(C)c(S(=O)(=O)NC)c3)c3ccccc23)cc1,inactive: -16%
10,CCc1cccc(N2C(=O)CSC23C(=O)Nc2ccccc23)c1 (stereo not drawn),inactive: -6.18%
11,Cc1oc(-c2ccccc2Cl)nc1CSc1nc2ncccc2[nH]1,inactive: 13.8%
12,Cc1cc(C)c(NC(=O)Cn2cnc3c(oc4ccccc43)c2=O)c(C)c1,inactive: 3.4%
13,COc1ccccc1N1CCN(c2ncnc3onc(-c4cccc(Cl)c4)c23)CC1,inactive: 9.16%
14,O=C(NCc1cccc(Cl)c1)c1ccc2nc(N3CCCCC3)sc2c1,inactive: -2.34%
15,CCOC(=O)c1c(C)n(-c2ccccc2)c2ccc(OC(=O)c3cccc(OC)c3OC)cc12,inactive: 14.8%
16,CCOC(=O)c1c(-c2ccc(C)cc2)csc1NC(=O)c1cc(=O)c2ccc(C)cc2o1,inactive: -11.5%
17,CSc1cccc(Nc2cc(C(=O)NCCCN(C)c3ccccc3)c3ccccc3n2)c1,inactive: 4.89%
18,COc1ccc(/C=C/C(=O)Nc2nc3n(n2)C(c2ccc(F)cc2)C=C(c2ccccc2)N3)cc1 (stereo not drawn),inactive: -8.87%
19,COc1ccc(NC(=O)C2CCCN(S(=O)(=O)c3ccc(Br)s3)C2)cc1 (stereo not drawn),inactive: -18.8%
20,CC(=O)N1CCc2cc(S(=O)(=O)NC(C(=O)Nc3ccc(C)cc3C)C(C)C)ccc21 (stereo not drawn),inactive: -1.66%
21,COc1cccc(C(=O)Nc2c(C(=O)N3CCN(c4ccc(F)cc4)CC3)oc3ccccc23)c1,inactive: 0.393%

row,SMILES,"activity change, negative = cytotoxicity"
1,CCc1ccc(CNC(=O)c2c(C)oc3ncnc(N4CCOCC4)c23)cc1,inactive: -11.8%
2,COc1cc2ccccc2cc1C(=O)Nc1ccc2oc(-c3ccc(F)cc3Cl)nc2c1,inactive: 1.91%
3,CCOc1ccc(C(=O)c2oc3ccccc3c2NC(=O)Cc2coc3ccc(CC)cc23)cc1,inactive: -8.31%
4,O=C(Cc1ccc(F)cc1)Nc1nnc2n1CCS2,inactive: -1.42%
5,Cc1cccc(NC(=O)N2CCC3(CC2)Oc2ccccc2C(=O)N3Cc2ccccc2F)c1C,inactive: -7.07%
6,O=C(NCCn1ccc2ccccc21)c1ccc(Cl)cc1,inactive: 26.6%
7,COc1ccccc1NC(=O)CSc1nc(-c2ccc(C(C)(C)C)cc2)c(C#N)c(=O)[nH]1,inactive: -7.19%
8,CCOc1ccccc1-n1nnc(-c2nsc(NC(=O)c3ccc(C)cc3)n2)c1C,inactive: -21.5%
9,CCc1ccccc1OCC(=O)Nc1ccc(S(=O)(=O)Nc2nc(C)cc(C)n2)cc1,inactive: 1.59%
10,CCc1cccc(-n2c(=O)c3cccnc3n2CC(=O)Nc2ccc(F)c(C)c2)c1,inactive: -7.1%
11,CCc1ccc2occ(CC(=O)Nc3ccccc3C(F)(F)F)c2c1,inactive: -2.7%
12,CC(C)c1ccc(Nc2cc(C(=O)NC3CCCCC3)c3ccccc3n2)cc1,inactive: 13.7%
13,Cn1c(C(=O)Nc2cccc(C(F)(F)F)c2)cc2c(=O)n3ccccc3nc21,inactive: 5.26%
14,CC1=C(c2ccc(C)c(C)c2)S(=O)(=O)N=C1N1CCC(C(=O)N2CCC(C)CC2)CC1,inactive: -3.68%
15,CCOc1cc(/C=C(\C#N)C(=O)NCC2CCCO2)ccc1O (stereo not drawn),inactive: 15.1%
16,CCOc1ccc(NC(=O)C2CCC(CNS(=O)(=O)c3ccc(Br)s3)CC2)cc1 (stereo not drawn),inactive: 0.862%
17,COc1ccc(OC)c(CNC(=O)C(C)n2c(C)c3cnn(-c4ccccc4)c(=O)c3c2C)c1 (stereo not drawn),inactive: 8.62%
18,CNc1ncnc2c1cnn2-c1ccc(C)c(C)c1,inactive: 3.52%
19,Cc1ccccc1CNC(=O)CCCn1c(=O)c2cccn2c2cccnc21,inactive: 11.8%
20,Oc1ccccc1-c1nc(/C=C/c2ccccc2Cl)nn1-c1ccccc1,inactive: 28.2%
21,Cc1ccc(N2CC(NC(=O)c3cccs3)CC2=O)cc1C (stereo not drawn),inactive: -2.61%

row,SMILES,"activity change, negative = cytotoxicity"
1,Cc1cccc(NC(=O)c2ccc(-n3cnc4cccnc43)cc2)c1C,inactive: -2.37%
2,COC(=O)c1cc2sc(C)cc2n1Cc1cccc(OC)c1,inactive: -4.84%
3,COc1ccc(C2Nc3ccccc3-c3cc(C)nn32)cc1OC (stereo not drawn),inactive: 0.136%
4,O=c1cc(-c2ccccc2)nc(SCc2nc(-c3ccccc3Cl)no2)[nH]1,inactive: 14.1%
5,CCOc1cc(C(=O)Nc2cc3c(cc2N2CCOCC2)n(C)c(=O)n3C)cc(OCC)c1OCC,inactive: 2.76%
6,CCOC(=O)c1c(-c2ccc(OC)cc2)oc2ccc(OCc3ccccc3C)cc12,inactive: 4.77%
7,CCOC(=O)c1c(C)[nH]c(C)c1S(=O)(=O)N1CCCC(C(=O)NCc2cccc(C)c2)C1 (stereo not drawn),inactive: -0.485%
8,Cc1cccn2c(=O)c(C(=O)NCc3ccc(F)cc3)c(O)nc12,inactive: 21.3%
9,COc1ccc(-c2nc3ccc(NS(=O)(=O)c4ccc(C)cc4)cc3o2)cc1,inactive: -14.6%
10,CCCOc1cccc(C(=O)Nc2cccc3cccnc23)c1,inactive: 8.42%
11,CCN(C(=O)c1nn(-c2ccc(OC)c(Cl)c2)c(=O)c2c1c1ccccc1n2C)c1cccc(C(F)(F)F)c1,inactive: 1.26%
12,O=C(CN1C(=O)COc2ccc(Cl)cc21)Nc1ccc(F)cc1,inactive: 8.54%
13,O=C(CCC(=O)N1CC2CCCN2c2ccccc21)NCc1ccc(Cl)cc1 (stereo not drawn),inactive: -0.329%
14,CCC1CCC(C(=O)NC(C(=O)Nc2cccc(OC)c2)C(C)C)CC1 (stereo not drawn),inactive: -2.35%
15,CCOc1ccc(CNCc2c(C(=O)O)c(C)n(Cc3cccc(OC)c3)c2C)cc1OC,inactive: 8.45%
16,Cc1cccc(NC(=O)CSc2nnc3[nH]c(=O)cc(-c4ccccc4)n23)c1C,inactive: -18.3%
17,Cc1cc(CN2CCN(c3ccccc3F)CC2)cs1,inactive: 0.139%
18,Cc1ccc(Cn2c(C(=O)NCc3ccccc3Cl)cc3sccc32)cc1,inactive: 17.4%
19,CCC1=C(c2ccc(C)cc2)S(=O)(=O)N=C1N1CCC(C(=O)Nc2ccccc2F)CC1,inactive: 1.57%
20,Cc1ccc(NC(=O)Cn2ncn3c(cc4ccccc43)c2=O)cc1F,inactive: -3.23%
21,Cc1nc2sccn2c(=O)c1S(=O)(=O)Nc1ccc(N2CCOCC2)c(Cl)c1,inactive: -16.5%
